Experimental data reported in PubChem BioAssay AID463173 (ICCB-Longwood Screening Facility, Harvard Medical School, 2010).
Among all 52,000 compounds or so, about 1,700 (3.3%) were called active. No stated cut-off is given here; in the data, active means survival mostly below about 52% (no sharp cut-off); inactive means mostly above about 56%. This is one part of the list.

test system: Wild type; test: S. aureus survival, RN4220 and DeltatarO strains – OD600, teichoic acid synthesis inhibitors, primary screen (AID 463173); conditions: S. aureus RN4220 wild type/DeltatarO growth, OD600, 18 h, hits give low values, screened at 18.75 µg/mL (by protocol)

| Compound | survival |
| --- | --- |
| Cc1ccc(Cl)cc1NC(=O)c1oc2c(c1C)-c1[nH]ncc1CC2 | inactive: 114% |
| COc1ccc(N(Cc2cccs2)C(=O)COc2cccc(Cl)c2)cc1 | inactive: 56% |
| CC1=C(C(=O)OC2CCCCCC2)C(c2c(F)cccc2Cl)CC(=O)N1 (centres undefined) | inactive: 56% |
| CCOC(=O)c1c(Nc2ccc(C)cc2)nnc(-c2ccccc2)c1-c1ccccc1 | active: 2% |
| Cn1c(=O)n(-c2ccc(F)c(Cl)c2)c(=O)c2sc3ccccc3c21 | inactive: 96% |
| CCC1CCCCN1C(=O)c1ccc2c(c1)N(Cc1cccc(Cl)c1)C(=O)c1ccccc1S2(=O)=O (centres undefined) | inactive: 73% |
| COc1ccc(NCc2cc3cc4c(cc3n(CC(=O)Nc3ccc(F)cc3F)c2=O)OCO4)cc1 | inactive: 60% |
| COc1ccc2c(C)c(CCC(=O)NCCc3ccccc3OC)c(=O)oc2c1 | inactive: 79% |
| COC(=O)CCSc1nc2sc3c(c2c(=O)n1Cc1ccccc1)CCC(C(C)(C)C)C3 (centres undefined) | inactive: 66% |
| O=C(CN(Cc1ccc2c(c1)OCO2)C(=O)CSc1nc2ccccc2o1)NC1CCCCC1 | inactive: 105% |
| Cc1cc(F)ccc1NC(=O)CCS(=O)(=O)c1ccc2c(c1)NC(=O)CO2 | inactive: 86% |
| O=C(Nc1ccc(Cl)cc1)C1CCCN(S(=O)(=O)c2ccc3[nH]c(=O)ccc3c2)C1 (centres undefined) | inactive: 106% |
| CCOc1cccc2cc(-c3nc(-c4ccccc4C)no3)c(=O)oc12 | inactive: 84% |
| Cc1ccc(Oc2c(C(F)(F)F)oc3c(CN4CCCCC4)c(O)ccc3c2=O)cc1 | inactive: 73% |
| CCOC(=O)c1ccccc1NC(=O)CSc1cn(CC(=O)N2CCCCC2)c2ccccc12 | inactive: 94% |
| Cc1nc2c(-c3ccccc3)c(C)nn2c(C)c1CCC(=O)NC(C)c1ccccc1 (centres undefined) | inactive: 75% |
| COc1cccc(CNC(=O)C2CCCN(S(=O)(=O)c3ccc4c(ccn4C)c3)C2)c1 (centres undefined) | inactive: 130% |
| CCc1ccccc1NS(=O)(=O)c1ccc2[nH]cc(C(=O)N3CCCCC3)c(=O)c2c1 | inactive: 127% |
| COc1cc(CN(C(=O)Nc2ccccc2)c2ccccn2)cc(OC)c1OC | inactive: 86% |
| CCOC(=O)c1cccc(NC(=O)c2oc3c(c2C)-c2[nH]ncc2CC3)c1 | inactive: 74% |
| CCCN(C(=O)c1cc2c(s1)-c1ccccc1OC2)c1ccccc1F | active: -2% |
| CCC(C(=O)Nc1ccc(C(=O)OC)cc1)n1c(=O)c(-c2ccccc2NC(C)=O)nc2ccccc21 (centres undefined) | inactive: 103% |
| COc1ccc(NC(=O)CC2C(=O)N(c3ccc(F)cc3)C(=O)N2Cc2cccnc2)cc1 (centres undefined) | inactive: 124% |

| Compound | survival |
| --- | --- |
| CC(C)CCNC(=O)c1cccc(Nc2nc3ccccc3n3nnnc23)c1 | inactive: 79% |
| Cc1ccc(NC(=O)c2cc(S(=O)(=O)NCCC3=CCCCC3)ccc2F)cc1F | inactive: 82% |
| COc1ccc(Cl)cc1NC(=O)c1ccc2nc(Cc3ccccc3)oc2c1 | inactive: 78% |
| O=C(O)c1cccc(N=C2NC(=O)C(CO)(CO)S2)c1 | inactive: 117% |
| CCCC(=O)Nc1cc(C)c(O)c(-c2nc3ncccc3o2)c1 | inactive: 75% |
| Cc1ccc(-n2nc(C(=O)N3CCN(c4cc(Cl)ccc4C)CC3)c(=O)n(C)c2=O)cc1 | inactive: 136% |
| OCC1OC(n2nnc3ccccc32)C(O)C(O)C1O (centres undefined) | inactive: 120% |
| Cc1cc(NC(=O)c2ccc(Br)o2)cc(-c2nc3ccccc3o2)c1O | inactive: 90% |
| CCCCNC(=O)C1CCCN(Cc2nc(-c3ccc(Cl)cc3)oc2C)C1 (centres undefined) | inactive: 87% |
| CCc1ccc(C(=O)c2cn(CC(=O)Nc3ccc(F)c(F)c3)c3cc(OC)c(OC)cc3c2=O)cc1 | inactive: 111% |
| COc1ccc(NC(=O)C(NS(=O)(=O)c2ccc3c(c2)CCCC(=O)N3)C(C)C)c(OC)c1 (centres undefined) | inactive: 110% |
| Cc1cc(C)c(NC(=O)CSc2ccnc(=O)[nH]2)c(C)c1 | inactive: 74% |
| O=C(NCCCN1CCCC1)c1ccccc1Cl | inactive: 122% |
| CC1(C)CC(=O)C(C=NC(C)(C)C)=C(O)C1 | inactive: 112% |
| COc1cc(NC(=O)CCn2c(-c3ccccc3)cc(C(C)=O)c2C)cc(OC)c1 | inactive: 77% |
| Cc1c(Cl)cccc1NC(=O)CSc1ncnc2c1sc1ccccc12 | inactive: 73% |
| Cc1cccc(CNC(=O)c2oc3c(c2C)-c2nn(Cc4ccccc4Cl)cc2CC3)c1 | inactive: 87% |
| CC1(NS(=O)(=O)c2ccccc2)CCS(=O)(=O)C1 (centres undefined) | inactive: 100% |
| NS(=O)(=O)c1ccc(CCNC(=O)C2COc3ccccc3C2)cc1 (centres undefined) | inactive: 73% |
| CCc1ccc(C2CC(=O)c3c([nH]c(C(=O)OCC4CCCCC4)c3C)C2)cc1 (centres undefined) | inactive: 92% |
| Cc1cc(OCC(=O)Nc2ccc(-c3nc4cc(Cl)ccc4o3)cc2)cc(C)c1Cl | inactive: 93% |
| Cc1ccc(-n2ncc3c(N4CCCCCC4)ncnc32)cc1 | inactive: 73% |
| Cc1ccc(Cn2c(=O)c3cccnc3n(CC(=O)Nc3cccc(C(F)(F)F)c3)c2=O)cc1 | inactive: 84% |

| Compound | survival |
| --- | --- |
| O=C(COc1ccccc1)NCc1ccc2c(c1)CCN2C(=O)c1ccc(F)cc1 | inactive: 71% |
| CCc1cccc(NC(=O)Nc2ccc3c(c2)N(C)C(=O)c2ccccc2S3)c1 | inactive: 46% |
| c1ccc(-n2ncc3c(NC4CCCC4)ncnc32)cc1 | inactive: 121% |
| Cc1oc(C(C)(C)C)cc1C(=O)NC(Cc1ccccc1)C(=O)O (centres undefined) | inactive: 98% |
| CCOc1ccc(NC(=O)C(=O)NCCc2csc(-c3ccc(F)cc3)n2)cc1 | inactive: 105% |
| CCC(=O)N1CCc2cc(Br)cc(S(=O)(=O)CCC(=O)NCCc3ccc(OC)c(OC)c3)c21 | inactive: 130% |
| CCOc1ccc(/C=C/c2nc(C#N)c(N3CCN(c4ccc(OC)cc4)CC3)o2)cc1 | inactive: 84% |
| Cn1cc(S(=O)(=O)N2CCCCCC2)cc1C(=O)N1CCN(c2ccc(F)cc2)CC1 | inactive: 71% |
| COc1ccc(NS(=O)(=O)c2cc3[nH]c(=O)c(=O)[nH]c3cc2C)cc1Cl | inactive: 110% |
| CC(C)OCCCn1c(SCc2ccccc2C#N)nc2c(sc3ccccc32)c1=O | inactive: 76% |
| Cc1ccc(NC(=O)Cc2c(C(=O)O)c(C)cn2C)cc1Cl | inactive: 87% |
| O=C(CN1C2=NCCN2c2ccccc21)c1ccco1 | inactive: 103% |
| COc1cc(OC)c(NC(=O)CN2C(=O)CCn3nc(-c4cccn4C)cc32)cc1Cl | inactive: 57% |
| CN(C(=O)C1CCCN(c2ncnc3c2nc2n3CCCCC2)C1)c1ccccc1F (centres undefined) | inactive: 81% |
| NC(=O)CSc1nnc(COc2cccc3ccccc23)o1 | inactive: 112% |
| CCN(CC)CC(C)CNC(=O)CN1C(=O)CSc2ccc(S(=O)(=O)N3CCOCC3)cc21 (centres undefined) | inactive: 131% |
| Cc1ccc(CNC(=O)c2cc3sccc3n2Cc2ccc(Cl)cc2)cc1 | inactive: 103% |
| CC(CCc1ccccc1)NC(=O)Cn1ncc2c3ccccc3n(Cc3ccc(F)cc3)c2c1=O (centres undefined) | inactive: 86% |
| CCCn1c(=O)c2sccc2n2c(CCCC(=O)NCCc3ccc(Cl)cc3)nnc12 | inactive: 95% |
| CCOc1ccccc1NC(=O)NC1(C(=O)NCc2ccco2)CCCCC1 | inactive: 96% |
| CC(C)c1ccc(S(=O)(=O)c2nnn3c2nc(NCCc2ccccc2)c2sccc23)cc1 | inactive: 62% |
| Cc1nn(C(=O)c2cccc([N+](=O)[O-])c2C)c(C)c1S(=O)(=O)N1CCOCC1 | inactive: 64% |
| COc1cc(-c2ccno2)ccc1S(=O)(=O)N1CCN(c2cc(C)ccc2C)CC1 | inactive: 63% |

| Compound | survival |
| --- | --- |
| COCC(=O)Oc1c(Sc2ccc(C)cc2)c(C)nn1C(C)(C)C | inactive: 69% |
| Cc1ccc(NC(=O)CC(C)S(=O)(=O)c2ccc3c(c2)NC(=O)CO3)c(C)c1 (centres undefined) | inactive: 77% |
| COc1ccc2nc(Cl)c(CN(Cc3ccc(F)cc3)C(=O)c3ccco3)cc2c1 | inactive: 107% |
| Cc1cc(C)cc(Oc2nc3c(C)cccn3c(=O)c2/C=C(\C#N)c2nc3ccccc3[nH]2)c1 | inactive: 69% |
| COc1cccc(N2CC(NC(=O)C(c3ccccc3)c3ccccc3)CC2=O)c1 (centres undefined) | inactive: 65% |
| Cc1ccc2nc(-c3ccsc3)c(Nc3ccccc3C)n2c1 | inactive: 47% |
| Cc1nc2nncn2c(N2CCN(c3ccccc3)CC2)c1C | inactive: 98% |
| COc1ccccc1/C=C/c1nc(C#N)c(N2CCCCC2)o1 | inactive: 88% |
| COCCNC(=O)Cc1ccc(NC(=O)N2CCCCc3ccccc32)cc1 | inactive: 121% |
| O=C(NCc1ccc(F)cc1)c1ccc(CSCc2cccc(Cl)c2)o1 | inactive: 65% |
| CC(C)NC(=O)C1CCN(C(=O)NCc2ccccc2)CC1 | inactive: 99% |
| CCN(CC)C(=O)C1CCN(S(=O)(=O)c2ccc3c(c2)CCCN3C(C)=O)CC1 | inactive: 135% |
| Cc1ccc(-c2cc(C(F)(F)F)n3nc(C(=O)Nc4ccc(Cl)cc4Cl)cc3n2)cc1 | inactive: 87% |
| Cc1ccc(NC(=O)CSc2ncc3c(n2)-c2ccccc2N(Cc2cccc(F)c2)S3(=O)=O)cc1F | inactive: 55% |
| Cc1ccc(N2CC(NC(=O)/C=C\c3ccc4c(c3)OCO4)CC2=O)cc1C (centres undefined) | inactive: 130% |
| O=C1c2ccccc2C(=O)C1(c1ccccc1)N1CCN(c2cccc(Cl)c2)CC1 | inactive: 135% |
| COCCNC(=O)c1cnn(-c2ccc(C)cc2C)c1C1CCN(C(=O)OC(C)(C)C)CC1 | inactive: 88% |
| COc1ccc(-n2c(/C=C/c3ccccc3F)nc3cc(OC)c(OC)cc3c2=O)cc1Cl | inactive: 69% |
| Cc1ccccc1Cn1c(C(=O)O)c(CNCc2cccc(F)c2)c2ccccc21 | inactive: 64% |
| Cn1cc(CN(C(=O)Nc2ccc(Cl)c(Cl)c2)C2CCCCC2)c2ccccc21 | inactive: 60% |
